Measurements: the supplement of paper PMC11417369
This is one part of the list.

These sequences were tested on PfAP2-HC AP2 domain (GST-tagged) (assay: gcPBM binding intensity (ln(normalized median fluorescence intensity)); higher = stronger DNA binding).
Outline: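 Binding intensity is the highest Masliner-normalised natural-log median intensity over replicate spots in either probe orientation. To obtain it, GST-tagged P. falciparum DNA-binding domains made in E. coli were incubated for 1 h on an Agilent 4 × 180k array of primer-extended double-stranded 36-bp intergenic genomic probes plus negative controls. Detection used Alexa488 anti-GST antibody with scanning at 488 nm.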

Sequence	gcPBM binding intensity (ln)
TTTATACAAAAGAACAGTACAATAAAGGATTTATGA [XGTACX_site811]	9.57
TAAATTTGTGTTATTAAAAAAATGGTTTAAAAATGT [XGTACX_negctrl_site352]	9.51
TCTTTTTCATCTTTCAACAAAAAATAATATATGTGT [CACACA_negctrl_site866]	9.73
AGAATAAATATGCACACATGCATATATTTTTACACT [TGCATGCA_site893]	9.93
TTAGTCCATATTTTTGCACACCATTTTTTTTTTTTT [CACACA_site3927]	10.2
ATCCTTAATATGAACACACAAATATATTGCACATAT [CACACA_site6230]	9.98
AAATATACAATATTCACACAAAAAAATACATTACAA [CACACA_site5004]	9.74
ATATATTTATATTGTACACACATTTATGCATATATA [CACACA_site7502]	9.96
TTTCTTACAAAAGCTAGAGTTTTTTTTTTTTTTTTT [XGTACX_negctrl_site341]	9.39
TGTTTTTATAAAATAAATAAATATATATATATATAT [CACACA_negctrl_site502]	9.34
TTTATTATTTTAACGTGTACAAGGTATATAATATTC [XGTACX_site5241]	9.59
TAGGTAAATGCAAATTGGTTTAAATCAAAATATAAA [XGTACX_negctrl_site250]	9.55
GTATCAAAAGAATACACACACACATACAGATATATA [CACACA_site5975]	11.2
TGATATTATATATATACACACATGTATGTATTTATA [CACACA_site4874]	9.95
AAAAATAAAAAATATAAAAATATAAAAATATAAAAA [XGTACX_negctrl_site51]	9.55
TTATATTTTCTCCGCGTGCACATATGTATACTATAC	9.94
TTTTTGTTTTTTTGTTTATCGTTCGTGACTACATGA [TGCATGCA_negctrl_site124]	9.49
GAAATCTAAATAGAAACACACATATATATATATATA [CACACA_site3863]	9.53
TAGGGTAGTTATAATTGTACTTTTCTCCAAAAAAAA [XGTACX_site7321]	9.36

Sequence	gcPBM binding intensity (ln)
TAGGTACATAAATTGGTGCAAAGTGTACATATATAT	9.91
AAAATACATAAACGTTCACACATTGAAGATCACAAG [CACACA_site5347]	9.86
AATTTTAATTATATCACACATAATATATACCAAAAA [CACACA_site6011]	9.66
TTTAATACTTTTTTCTGTACACACTTGATTTACTAT [XGTACX_site5925]	10
TACATATTTTTATATACACACAATAATTACTATAAA [CACACA_site6879]	9.66
CAAAATATAAAAACATGTACATAAATATTAACGAAT [XGTACX_site2380]	9.96
TCATCCACATATTGTAGTACAAGATAATTGTTTATT [XGTACX_site1634]	9.63
ATATGTTTATTAAATGCATGTCAAGACTTAAGATAT [TGCATGCA_site329]	9.51
AACATATACACGAACACACACACATATAAATAAATA [CACACA_site6380]	10.4
AAAAATACAATTTTCTTGCACTTTGTTGCATTGTAA	9.66
TCATATATAAAAAGGGTGCTTTTAAAAGAATGGATT	9.71
CAAAAAATGAAACACACACACACACCCATAAATAAA [CACACA_site1231]	10.8
CAGATATTTGTTCATATACACACTTTTGATAAAATA [CACACA_site1219]	9.64
AATATTTTTTGTTTTACACACATATATAGATATATA [CACACA_site7662]	9.82
TTTTTTGGGTAAAATTATAAAATATGTATATATAAA [CACACA_negctrl_site27]	9.24
TTTTTTTTTGTATTTTCACACATTTTTTTTTTTTTT [CACACA_site5407]	9.82
TTATTTAAACAAATCACACACAAATATATATACATA [CACACA_site2019]	10
ATATGCATAAAAAGAGGTACACATAAAATATATATA [XGTACX_site5864]	9.89
TATACACATATATAAAGTACATATATGTGTAAAAAA [XGTACX_site8582]	9.88

Sequence	gcPBM binding intensity (ln)
TCTTCCGCTTTATGGAGTACTATGGTAGCCTTTCCT [XGTACX_site2958]	9.52
GACCTACAAAAAGGCACACATATACGCATACATACA [CACACA_site2179]	9.82
CATATTTTCAAAATTAGTACATAAAAAAAAAAATAT [XGTACX_site3101]	9.58
TATAATCATATATACACACACATATATATATATATA [CACACA_site2168]	10.1
AATATAAATAATATATGTACATATATATATATATAT [XGTACX_site1021]	9.67
AAAGTATTCTTTACACGTACATATATATAAATATAA [XGTACX_site7557]	9.59
AGAATTGTTGTTAAAGAATTCTTTTTTATCCTTCCC [CACACA_negctrl_site1820]	9.39
TTTGTATATATTAATGTACACACATGCGTATGTTCG [CACACA_site9193]	9.88
AATATAGATATAAAAAGTACATTATATATATATATA [XGTACX_site6899]	10
ATGACTCTCAAGTTTGCACACATTTATATTTTTTAA [CACACA_site2605]	10.1
TATACATACCATAATGCATGTAAGAACAAATAACTG [TGCATGCA_site264]	9.79
AAAAAAAAAAAAAAGGTGCATACTTTGAATTAATAT [GTGCAC_site9401]	9.56
GTATATCATATTTCATGTACACAAAAAAATAAAAAT [XGTACX_site704]	9.79
ACAAAATTTACAAAATGTACAAAATTTACAAAGTAT [XGTACX_site6463]	9.61
TATATATATTATATATGTACATATTATATATATATA [XGTACX_site7300]	9.39
ATATATTTGATAAGAGTGCACAAATACATACATACA [GTGCAC_site9704]	9.89
AAAAAAAAAAAATGCACACATATATTTCCATATACA [CACACA_site1471]	9.78
TATATATATAAACACACACACATATATATATATATA [CACACA_site4584]	10
TTTAAAATACAGAAGGTGCATTTAACATATTTGTAT	9.55
